Results from PubChem BioAssay AID485281 (National Center for Advancing Translational Sciences (NCATS), 2010).
“And” between values parts separate entries of the source, which are not always exact repeats. Equal entries are not always repeated. The campaign covered roughly 350,000 compounds. About 260 (0.074%) were called active. Inconclusive results, whose numbers are uncertain, are shown with a selection of clear calls. Calls follow the shape of the dose curve; as a rule, active = well fitted inhibition curve with a large enough effect; inconclusive = small, poorly fitted or top-dose-only effect; inactive = no such curve, though single readings can be large or run the other way. Where the call is inconclusive, the potency comes from a doubtful curve fit.

molecular target: Ferritin light chain (Equus caballus) (UniProt P02791); experiment: qHTS Assay for Identification of Novel General Anesthetics; conditions: apoferritin/1-aminoanthracene competitive binding, fluorescence; activity change, negative = displacement: at 77.5 µM (top of the series); also: nearly all actives have a fitted effect of over 20% in size
Chain of UniProt P02791 (P02791 whole entry, looked up): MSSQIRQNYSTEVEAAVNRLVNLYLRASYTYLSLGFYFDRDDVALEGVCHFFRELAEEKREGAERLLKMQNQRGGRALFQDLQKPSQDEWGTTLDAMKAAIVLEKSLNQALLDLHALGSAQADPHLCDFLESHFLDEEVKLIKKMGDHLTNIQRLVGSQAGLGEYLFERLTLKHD
Summary of the method: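 Read-out: endpoint 1-AMA fluorescence, excitation 380 nm and emission 535 nm, after compounds sit 10 min at room temperature with 10 uM horse-spleen apoferritin in 50% saturated 1-AMA/PBS. Values come from four-parameter Hill fits.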
% is scaled to controls: 0 for no effect and ±100 for the full control effect; potency is read from the fitted curve at half-maximal effect; tags tell the direction and shape of the fitted curve.

Compound	activity change, negative = displacement	Potency
CN(C)CCCNCC(=O)c1c(-c2ccccc2)n(C)c2ccccc12	inactive: -2.88%	–
COc1ccc(CC(=O)OCC(=O)NC(=O)NC23CC4CC(CC(C4)C2)C3)cc1	–	inconclusive: 3.98 µM [inhibitor, partial curve]
CCOC(=O)c1nc(S(C)(=O)=O)ncc1Cl	inactive: -16.7%	–
CN(C(=O)c1cc2n(n1)C(C(F)(F)F)CC(c1ccco1)N2)c1ccc(OC(F)(F)F)cc1 (stereo unspecified)	–	inconclusive: 10 µM [inhibitor, partial curve]
CN(C)c1ccc(/C(=N\O)C(F)(F)F)cc1	–	inconclusive: 31.6 µM [inhibitor, partial curve]
O=C(CSCc1ccc([N+](=O)[O-])cc1)NN=C1CCCCCC1	–	inconclusive: 14.1 µM [inhibitor, partial curve, poor fit]
O=C(CSc1cccc[n+]1[O-])Nc1cc2c(cc1Cl)C(=O)c1ccccc1C2=O	inactive: -10.3%	–
O=C(CNC(=O)c1ccco1)OCc1ccc(C(=O)Oc2ccccc2)cc1	–	inconclusive: 22.4 µM [inhibitor, partial curve]
O=C(CN1CC(=O)Oc2ccccc21)OCC(=O)c1cccc(Br)c1	–	inconclusive: 25.1 µM [inhibitor, partial curve]
CCOc1ccc(Cn2nnc(C(=O)Nc3cccc(SC)c3)c2N)cc1	–	inconclusive: 3.16 µM [inhibitor, partial curve]
CC(=O)Nc1ccc(NC(=O)CCc2nc3ccccc3c(=O)[nH]2)cc1	inactive: -6.15%	–
CCc1ccc(NC(=O)COn2nnc3ccc(S(=O)(=O)N(C)C)cc32)cc1	–	inconclusive: 8.91 µM [inhibitor, full curve, poor fit]
CC1CCC(NC(=O)CCc2cn(Cc3ccccc3Cl)c3ccccc23)CC1 (stereo unspecified)	inactive: 0.975%	–
COc1cc(CNc2ccc(N3CCN(C(C)=O)CC3)cc2)ccc1OCc1ccc(F)cc1	–	inconclusive: 35.5 µM [inhibitor, partial curve]
CCOC(=O)C1=C(C)N=c2s/c(=C\c3ccncc3)c(=O)n2C1c1ccc2c(c1)OCO2 (stereo unspecified)	–	inconclusive: 7.94 µM [inhibitor, partial curve]
Cc1ccccc1OCC(=O)OCc1cc(=O)n2nc(C3CC3)sc2n1	–	inconclusive: 44.7 µM [inhibitor, single point]
Clc1ccc(-c2ccn[nH]2)cc1	–	inconclusive: 35.5 µM [inhibitor, single point]
COc1ccc2c(c1)c(C(O)CN1CCN(Cc3ccc4c(c3)OCO4)CC1)c(C)n2C (stereo unspecified)	–	inconclusive: 10 µM [inhibitor, partial curve]
Clc1ccccc1-c1nc(-c2cccnc2)no1	–	inconclusive: 39.8 µM [inhibitor, partial curve]
CCOC(=O)c1ccc(S(=O)(=O)N2CCN(C(=O)c3nn(C)c(=O)c4ccccc34)CC2)cc1	–	inconclusive: 25.1 µM [inhibitor, single point]
CCCCCCCCCCCCC/C=C/[C@@H](O)[C@@H](N)CO	–	inconclusive: 25.1 µM [inhibitor, partial curve]
COc1ccccc1N1CCN(CC(O)COc2ccc(C)cc2C)CC1 (stereo unspecified)	inactive: -2.01%	–

Compound	activity change, negative = displacement	Potency
CCC(C(=O)OCc1cc(=O)n2nc(C)sc2n1)c1ccccc1 (stereo unspecified)	–	inconclusive: 12.6 µM [inhibitor, partial curve]
CCC(C)C(=O)N1CCc2cc(-c3csc(N)n3)ccc21 (stereo unspecified)	–	inconclusive: 35.5 µM [inhibitor, single point]
CCOC(=O)c1ccc(NC(=S)N2CCCC(C)C2)cc1 (stereo unspecified)	–	inconclusive: 35.5 µM [inhibitor, partial curve]
CCOc1cc(/C=N/NC(=O)CNc2ccc(C)cc2)ccc1OC(=O)c1ccccc1	–	inconclusive: 12.6 µM [inhibitor, partial curve]
CN1N=C2c3ccccc3CCCC2C1c1ccc(F)cc1 (stereo unspecified)	–	inconclusive: 20 µM [inhibitor, partial curve]
COc1ccc(OC)c(NC(=O)c2c(NCc3sccc3C)sc3c2CCCCC3)c1	–	inconclusive: 31.6 µM [inhibitor, partial curve]
COc1ccc2nc(SCC(=O)Nc3ccc4c(c3)OCCO4)[nH]c2c1	–	inconclusive: 35.5 µM [inhibitor, partial curve]
CCN(CC)S(=O)(=O)c1ccc(C(=O)Nc2ccc(Cc3ccncc3)cc2)cc1	–	inconclusive: 20 µM [inhibitor, partial curve]
COc1ccc2c(Sc3ccc(C)cc3)c(C(=O)NCc3ccc(F)cc3)[nH]c2c1	–	inconclusive: 56.2 µM [inhibitor, single point]
COc1ccc(CCCC(=O)NC2CCCCC2)cc1	–	inconclusive: 22.4 µM [inhibitor, partial curve]
CCN(CC)c1ccc2ccc(=O)oc2c1	inactive: 356%	–
CCCC(=O)Nc1cc(C(=O)NCc2ccccc2)ccc1S(=O)(=O)c1ccc(Cl)cc1	inactive: -16.8%	–
CCN(CC(=O)Nc1ccc([N+](=O)[O-])cc1OC)c1ccccc1	–	inconclusive: 20 µM [inhibitor, partial curve]
COC(=O)N/N=C/c1ccc(-c2cc(Cl)cc(Cl)c2)o1	–	inconclusive: 50.1 µM [inhibitor, single point]
Cc1cc([N+](=O)[O-])ccc1NCc1ccco1	–	inconclusive: 35.5 µM [inhibitor, partial curve]
O=C(CCN1C(=O)C2C3CCC(C3)C2C1=O)OCC(=O)c1ccc(Cl)cc1 (stereo unspecified)	–	inconclusive: 12.6 µM [inhibitor, partial curve]
Cc1cc(/C=N/NC(=O)c2ccccn2)c(C)n1-c1cccc([N+](=O)[O-])c1	–	inconclusive: 31.6 µM [inhibitor, partial curve]
Cc1ccccc1CC1(CO)CCCN(C(=O)c2cccc(Cl)c2)C1 (stereo unspecified)	–	inconclusive: 35.5 µM [inhibitor, single point]
CN(C)c1cccc(NC(=O)C2(C)CC2(Cl)Cl)c1 (stereo unspecified)	–	inconclusive: 22.4 µM [inhibitor, partial curve]
CN(C/C=C/c1ccccc1[N+](=O)[O-])Cc1ccccc1	–	inconclusive: 31.6 µM [inhibitor, single point]
O=C(O)/C=C/C(=O)Nc1ccccc1C(=O)OCC(=O)c1ccc2c(c1)OCCO2	–	inconclusive: 31.6 µM [inhibitor, partial curve]
CC1(C)N([O-])C(c2cccs2)=C[N+]1=O	inactive: -19.3%	–

Compound	activity change, negative = displacement	Potency
CCOc1ccc(-c2c(C(=O)N/N=C/c3ccc(Cl)cc3)nnn2-c2nonc2N)cc1	inactive: -10.9%	–
CCC1=NN2C(=N)/C(=C\c3cccn3-c3ccc(OC)cc3)C(=O)N=C2S1	–	inconclusive: 35.5 µM [inhibitor, partial curve]
O=C(Cc1cccs1)NNC(=O)C12CC3CC(CC(C3)C1)C2	–	inconclusive: 15.8 µM [inhibitor, partial curve]
CC1(C)CC(=O)C2=C(C1)OC1=C(C(=O)CC(C)(C)C1)C2c1cc([N+](=O)[O-])cc([N+](=O)[O-])c1O	–	inconclusive: 31.6 µM [inhibitor, partial curve]
CCc1ccc(/C=C2\SC(=S)N(CCC(=O)NCCCN3CCOCC3)C2=O)cc1	–	inconclusive: 31.6 µM [inhibitor, partial curve]
CC(=O)c1c(C)[nH]c(C(=O)Nc2cc(C)cc(C)c2)c1C	–	inconclusive: 31.6 µM [inhibitor, partial curve]
CC1=C[C@H](C)[C@H](c2c(F)cccc2Cl)CC1=O	–	inconclusive: 22.4 µM [inhibitor, partial curve] and inconclusive: 31.6 µM [inhibitor, partial curve]
O=C(CSc1nc2ccc(Cl)cc2[nH]1)c1ccc2c(c1)OCO2	–	inconclusive: 12.6 µM [inhibitor, partial curve]
Nc1cccc(C(=O)OCC(=O)NC2CCCc3ccccc32)c1 (stereo unspecified)	–	inconclusive: 35.5 µM [inhibitor, partial curve]
Cc1ccsc1/C=C1\SC(N2CCOCC2)=NC1=O	–	inconclusive: 35.5 µM [inhibitor, partial curve]
c1ccc(COc2ccc(OCCCNC3CCCC3)cc2)cc1	–	inconclusive: 28.2 µM [inhibitor, partial curve]
CCOC(=O)C(=CNc1cc(C)nn1-c1ccc(C)cc1)C(=O)OCC	inactive: -21.8%	–
CCCCc1cc(=O)oc2cc(C)cc(OCC(=O)O)c12	inactive: -8.49%	–
CC(NS(=O)(=O)c1ccc(Br)s1)c1ccccc1 (stereo unspecified)	–	inconclusive: 28.2 µM [inhibitor, single point]
CCn1cc(/C=C/C(=O)Nc2ccc(C)cc2Br)cn1	inactive: -3.1%	–
Cc1nc(N2CCC(C)CC2)c2c(C)c(C(=O)Nc3ccc4c(c3)OCCO4)sc2n1	inactive: -2.68%	–
CC1=C(/C=C/C(C)=C\C=C\C(C)=C\C(=O)O)C(C)(C)CCC1	–	inconclusive: 31.6 µM [inhibitor, partial curve]
COc1ccc2oc(C(=O)OCC(=O)NC(C)c3ccccc3)c(C)c2c1 (stereo unspecified)	–	inconclusive: 31.6 µM [inhibitor, partial curve]
Cc1cc(=O)n2c3c(sc2n1)C(=O)N(Cc1ccccc1)C3=O	inactive: -13.3%	–
Cc1ccc(-n2nnnc2CNC(=O)c2cc(C(F)(F)F)cc(C(F)(F)F)c2)cc1C	inactive: 52.2%	–
COC(=O)c1ccccc1NC(=O)C1CCN(C(=O)Cc2ccccc2)CC1	–	inconclusive: 35.5 µM [inhibitor, partial curve]
CC1(c2ccccc2)CC2CC(c3ccccc3)N1O2 (stereo unspecified)	–	inconclusive: 35.5 µM [inhibitor, single point]
